Results reported in PubChem BioAssay AID485294 (National Center for Advancing Translational Sciences (NCATS), 2010).
About 150 (0.041%) of roughly 370,000 compounds were called active. This list was built around the results that the source calls inconclusive (neither active nor inactive); the mix of calls is not that of the screen. Calls come from the whole dose curve; as a rule, active = well fitted inhibition curve with a large enough effect; inconclusive = small, poorly fitted or top-dose-only effect; inactive = flat fitted curve, though single readings scatter. Potencies of inconclusive entries are left out as doubtful fits.

Target: Beta-lactamase (Escherichia coli (strain K12)) (UniProt P00811)
Experiment: qHTS Inhibitors of AmpC Beta-Lactamase (assay with detergent); note: nearly all actives have a fitted effect of over 25% in size
Conditions: AmpC hydrolysis of nitrocefin, absorbance 480 nm, 0.01% Triton; series mostly up to 114 µM
How it was run: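 20 mM phosphate pH 7.0 + 0.01% (detergent screen) or 0.0001% Triton X-100; 5.3 nM AmpC reagent; cpd preinc 15 min RT; nitrocefin (800 uM stock) to start; A480 q20 s × 4 min; Activity was normalised to no-enzyme and no-compound control wells.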
Potency is the fitted concentration of half-maximal effect; tags give direction and shape of the fitted curve.

Sequence of UniProt P00811 (P00811 whole entry, looked up): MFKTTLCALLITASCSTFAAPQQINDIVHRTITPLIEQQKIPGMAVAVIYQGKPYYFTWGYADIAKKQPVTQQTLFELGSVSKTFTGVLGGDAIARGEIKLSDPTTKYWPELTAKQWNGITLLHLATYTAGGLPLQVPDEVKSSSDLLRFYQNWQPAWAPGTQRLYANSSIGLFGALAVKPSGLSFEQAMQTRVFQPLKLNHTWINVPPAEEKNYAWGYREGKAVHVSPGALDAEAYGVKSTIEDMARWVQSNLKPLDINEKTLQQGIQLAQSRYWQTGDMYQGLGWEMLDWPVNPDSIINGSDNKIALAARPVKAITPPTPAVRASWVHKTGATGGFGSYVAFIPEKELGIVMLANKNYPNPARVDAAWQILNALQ

**Q.** How did the Potency turn out when CCCCCCCCCCC[N+](C)(C)CC/C=C1/c2ccccc2Sc2ccc(Cl)cc21 was run?
**A.** inactive

**Q.** Which Potency does the source give for Cc1ccc2c(c1)N(CCCC(=O)NCc1ccc3c(c1)OCO3)C(=O)CO2 here?
**A.** inconclusive [inhibitor, full curve]

**Q.** Which Potency does the source give for CCC(Cc1ccccc1)NC(=O)CN1C(=O)CSc2ncccc21 (stereo not drawn) here?
**A.** inconclusive [inhibitor, full curve, poor fit]

**Q.** With O=C(COC(=O)/C=C/c1ccc2c(c1)OCO2)NC1CC1 as the compound, how does the Potency read?
**A.** inconclusive [inhibitor, full curve]

**Q.** Which Potency does the source give for CCC1SC(=NC(=O)c2ccc(Cl)c(Cl)c2)NC1=O (stereo not drawn) here?
**A.** inactive

**Q.** O=C(CN1C(=O)c2ccccc2C1=O)Nc1ccccc1 was tested. Which Potency did it give?
**A.** inconclusive [inhibitor, full curve, poor fit]

**Q.** Cc1cc(C)c(S(=O)(=O)N2CCN(c3ccc([N+](=O)[O-])c(-n4nc(C)cc4C)c3)CC2)c(C)c1 was tested. Which Potency did it give?
**A.** inactive

**Q.** With Cc1ccc(NC(=O)CCc2c(C)nn(-c3ccc(N4CCCCC4)nn3)c2C)cc1C as the compound, how does the Potency read?
**A.** inactive

**Q.** How did the Potency turn out when Cc1ccc(S(=O)(=O)c2nnn3c2nc(NCCc2ccccc2)c2sccc23)cc1 was run?
**A.** inactive

**Q.** For CCc1ccc(OCCCCCn2ccnc2)cc1, which Potency is on record?
**A.** inconclusive [inhibitor, full curve, poor fit]

**Q.** Which Potency does the source give for CCn1c(COc2cccc(C)c2)nnc1SCC(=O)Nc1cccc(C(=O)O)c1 here?
**A.** inconclusive [inhibitor, full curve, poor fit]

**Q.** How did the Potency turn out when COc1ccc(/C=N\NC(=O)c2ccccc2OC)cc1COc1ccccc1C was run?
**A.** inconclusive [inhibitor, full curve, poor fit]

**Q.** C(=C\c1nc(-c2ccccc2)no1)/c1ccccc1 was tested. Which Potency did it give?
**A.** inactive

**Q.** CCc1cc(Cn2nc(-c3ccccc3)cc2C(=O)O)on1 was tested. Which Potency did it give?
**A.** inconclusive [inhibitor, full curve, poor fit]

**Q.** How did the Potency turn out when N#CCCCSc1nnc(-c2ccccn2)o1 was run?
**A.** inconclusive [inhibitor, full curve, poor fit]

**Q.** How did the Potency turn out when Cc1ccsc1/C=C1\CCc2ccccc2C1=O was run?
**A.** inconclusive [inhibitor, full curve, poor fit]

**Q.** With O=C1OCc2cc(NC(=O)C3COc4ccccc4O3)ccc21 (stereo not drawn) as the compound, how does the Potency read?
**A.** inconclusive [inhibitor, partial curve, poor fit]

**Q.** Which Potency does the source give for CC(=O)C1=C(C)OC(N)=C(C#N)C1c1ccncc1 (stereo not drawn) here?
**A.** inconclusive [inhibitor, partial curve]

**Q.** How did the Potency turn out when CC(C)(C)NC(=O)CSc1ccc(S(=O)(=O)N2CCOCC2)cn1 was run?
**A.** inconclusive [inhibitor, full curve, poor fit]

**Q.** With O=C(O)CCSc1nc2ccccc2n1Cc1ccccc1 as the compound, how does the Potency read?
**A.** inconclusive [inhibitor, full curve]

**Q.** For COc1ccccc1CNC(=O)c1ccc(-c2ccccc2Cl)o1, which Potency is on record?
**A.** inconclusive [inhibitor, partial curve]

**Q.** CSc1nc(Oc2cccc(C(F)(F)F)c2)cc(C(F)(F)F)n1 was tested. Which Potency did it give?
**A.** inactive

**Q.** O=C(CCc1ccccc1)Nc1c(F)c(F)c(F)c(F)c1F was tested. Which Potency did it give?
**A.** inconclusive [inhibitor, full curve, poor fit]

**Q.** How did the Potency turn out when O=C(CSc1nc2ccccc2o1)NCc1n[nH]c(=O)c2ccccc12 was run?
**A.** inconclusive [inhibitor, single point]

**Q.** With C[C@@H](NC(=O)OC(C)(C)C)c1nnc(S(=O)(=O)Cc2ccccc2)o1 as the compound, how does the Potency read?
**A.** active: 8.91 µM

**Q.** Which Potency does the source give for O=C(O)C1C2C=CC(C2)C1C(=O)NCc1ccc(Cl)cc1Cl (stereo not drawn) here?
**A.** inactive

**Q.** How did the Potency turn out when C=CCNC(=S)N(Cc1ccccc1)Cc1ccccc1 was run?
**A.** inconclusive [inhibitor, full curve, poor fit]

**Q.** Which Potency does the source give for CC(C)(C)C(=O)/C=C(N)/C=C/c1ccccc1 here?
**A.** inconclusive [inhibitor, full curve]

**Q.** O=C1C2C3C=CC(C3)C2C(=O)N1c1nc2ccccc2s1 (stereo not drawn) was tested. Which Potency did it give?
**A.** inconclusive [inhibitor, partial curve, poor fit]

**Q.** O=C(Nc1nc2ccccc2[nH]1)c1cccc(S(=O)(=O)N2CCOCC2)c1 was tested. Which Potency did it give?
**A.** inconclusive [inhibitor, full curve, poor fit]

**Q.** For CCOc1ccc(C2N(c3ccc(F)cc3)C(=O)C3CCCN32)cc1 (stereo not drawn), which Potency is on record?
**A.** inconclusive [inhibitor, partial curve]

**Q.** With O=C(Cn1cc(S(=O)(=O)Cc2cccc(Cl)c2)c2ccccc21)Nc1ccccc1Cl as the compound, how does the Potency read?
**A.** inactive

**Q.** CCCN1C(=O)/C(=C/c2ccc(C)s2)NC1=S was tested. Which Potency did it give?
**A.** inconclusive [inhibitor, partial curve, poor fit]

**Q.** For Cc1ccccc1N(C(=O)CS(=O)CC(=O)Nc1ccc(F)cc1)C(C)C(=O)NC(C)(C)C (stereo not drawn), which Potency is on record?
**A.** inactive

**Q.** Cc1onc(-c2c(F)cccc2Cl)c1C(=O)N1C=CC(C(F)(F)Cl)=NCC1 was tested. Which Potency did it give?
**A.** inconclusive [inhibitor, full curve, poor fit]

**Q.** For Cc1cc2ncc(S(=O)(=O)C(C)(C)C)c(N)n2n1, which Potency is on record?
**A.** inconclusive [inhibitor, full curve, poor fit]

**Q.** With Cc1ccccc1NC(=S)NNC(=O)c1ccoc1C as the compound, how does the Potency read?
**A.** inactive

**Q.** How did the Potency turn out when CC(C)c1ccccc1N1CC(C(=O)O)CC1=O (stereo not drawn) was run?
**A.** inconclusive [inhibitor, partial curve, poor fit]

**Q.** Nc1ccccc1OCCOc1ccccc1N was tested. Which Potency did it give?
**A.** inactive

**Q.** Which Potency does the source give for Cc1ccc2nc(NC(=O)c3ccc(N4C(=O)CCC4=O)cc3)sc2c1 here?
**A.** inactive

**Q.** Which Potency does the source give for CCC(C)NC(=O)C1CCN(CCCc2ccccc2)CC1 (stereo not drawn) here?
**A.** inconclusive [inhibitor, full curve, poor fit]

**Q.** With Cc1cccc(NC(=O)CCC(=O)N/N=C/c2cc([N+](=O)[O-])ccc2O)c1 as the compound, how does the Potency read?
**A.** inconclusive [inhibitor, full curve, poor fit]

**Q.** How did the Potency turn out when COc1cc(/C=N/NC(=O)c2ccc(NC(=O)C3CC3)cc2)ccc1OC(C)=O was run?
**A.** inconclusive [inhibitor, full curve, poor fit]

**Q.** With COc1cc2c(cc1OC)C(=O)N1[C@H]3c4ccccc4OC[C@@H]3[C@H](c3ccccc3)[C@]1(C)C(=O)N2 as the compound, how does the Potency read?
**A.** inconclusive [inhibitor, full curve, poor fit]

**Q.** Which Potency does the source give for Cc1ccc(-n2nc3c(=O)n(CC(=O)NCCC(C)C)nc(C)c3c2C)cc1 here?
**A.** inactive

**Q.** For CCOc1nc(C#N)nc(N2CCCCC2)n1, which Potency is on record?
**A.** inconclusive [inhibitor, full curve, poor fit]

**Q.** For Nc1ncn([C@H]2C[C@H](O)[C@@H](CO)O2)c(=O)n1, which Potency is on record?
**A.** inconclusive [inhibitor, partial curve, poor fit]

**Q.** How did the Potency turn out when COc1cccc(/C=C/C(=O)c2ccc(C)c([N+](=O)[O-])c2)c1 was run?
**A.** inactive

**Q.** Which Potency does the source give for Cc1ccc(-n2c(=O)[nH]c3cc(C(=O)NCc4ccccc4)ccc3c2=O)cc1 here?
**A.** inconclusive [inhibitor, single point]

**Q.** For COc1cccc(-n2nnc3c(=O)n(Cc4c(F)cccc4Cl)cnc32)c1, which Potency is on record?
**A.** inconclusive [inhibitor, partial curve, poor fit]

**Q.** For O=C(COC(=O)c1cccs1)NCCN1C(=O)CSC1=O, which Potency is on record?
**A.** inconclusive [inhibitor, partial curve, poor fit]

**Q.** Which Potency does the source give for O=C(COC(=O)CCCOc1ccc(Cl)cc1Cl)NCc1ccccc1 here?
**A.** inconclusive [inhibitor, partial curve, poor fit]

**Q.** For CCN(c1ccc(NC(=O)COC(=O)CCc2nc3ccccc3n2-c2ccccc2)cc1)C(C)C, which Potency is on record?
**A.** inconclusive [inhibitor, single point]

**Q.** CCNC(=S)NCc1ccc2[nH]c(C)cc2c1 was tested. Which Potency did it give?
**A.** inconclusive [inhibitor, partial curve, poor fit]

**Q.** For Cc1nn(Cc2ccccc2)c2c1C(c1ccc(Cl)cc1)C(C#N)=C(N)O2 (stereo not drawn), which Potency is on record?
**A.** inactive

**Q.** For COc1ccc(CC(=O)NCC2CCCN(Cc3ccc(F)cc3F)C2)cc1 (stereo not drawn), which Potency is on record?
**A.** inconclusive [inhibitor, full curve, poor fit]

**Q.** How did the Potency turn out when CCn1c(/C=C/c2cc[n+](C)cc2)nc2ccccc21 was run?
**A.** inconclusive [inhibitor, partial curve, poor fit]

**Q.** With Cc1cc(C)c(S(=O)(=O)N/N=C/c2ccc([N+](=O)[O-])o2)c(C)c1 as the compound, how does the Potency read?
**A.** inconclusive [inhibitor, full curve]

**Q.** For O=C(CSc1nc2c(cnn2-c2ccccc2)c(=O)[nH]1)N1CCOCC1, which Potency is on record?
**A.** inconclusive [inhibitor, partial curve, poor fit]

**Q.** How did the Potency turn out when CC1CCCC(n2cnc3cc(C(=O)O)ccc32)C1C (stereo not drawn) was run?
**A.** inconclusive [inhibitor, single point]

**Q.** For CC(=O)NC1(c2ccccc2)CCN(Cc2nnnn2C(C)(C)C)CC1, which Potency is on record?
**A.** inactive

**Q.** With CC(C)Nc1nc(NC(C)C)nc(C(N)=O)n1 as the compound, how does the Potency read?
**A.** inconclusive [inhibitor, full curve, poor fit]

**Q.** With O=c1ccc(-c2ccccc2)nn1Cc1ccccc1F as the compound, how does the Potency read?
**A.** inactive

**Q.** COc1cc(NC(=O)CN2C(=O)NC(C)(c3ccc(OC(F)F)cc3)C2=O)cc(OC)c1OC (stereo not drawn) was tested. Which Potency did it give?
**A.** inconclusive [inhibitor, full curve, poor fit]

**Q.** Which Potency does the source give for Cc1cccc(C(=O)N2CCC(=O)N(C(COCc3cccc(Cl)c3)Cc3ccccc3)CC2)c1 (stereo not drawn) here?
**A.** inconclusive [inhibitor, partial curve]

**Q.** How did the Potency turn out when C=CCc1c(C)nc(-c2ccccc2)nc1N/N=C/c1ccccc1 was run?
**A.** inactive

**Q.** For CC(=O)OC12CC3CC(C1)C(=NO)C(C3)C2, which Potency is on record?
**A.** inconclusive [inhibitor, full curve, poor fit]

**Q.** For COc1ccc(S(=O)(=O)Cc2ccc(C(=O)N3CCN(Cc4ccccc4)CC3)o2)cc1, which Potency is on record?
**A.** inactive
